Data reported in PubChem BioAssay AID624417 (National Center for Advancing Translational Sciences (NCATS), 2012).
The whole screen tested about 410,000 compounds, of which about 6,400 (1.6%) were called active. The shares of active, inactive and inconclusive entries below differ from those in the screen. The call rests on the fitted dose curve; in most records, active means well fitted inhibition curve with a large enough effect; inconclusive means small, poorly fitted or top-dose-only effect; inactive means no such curve, though single readings can be large or run the other way. A potency beside an inconclusive call is a rough fit, not a confirmed value.

Molecular target: Glucagon-like peptide 1 receptor (Homo sapiens) (UniProt P43220)
Sequence of UniProt P43220 (P43220 whole entry, looked up): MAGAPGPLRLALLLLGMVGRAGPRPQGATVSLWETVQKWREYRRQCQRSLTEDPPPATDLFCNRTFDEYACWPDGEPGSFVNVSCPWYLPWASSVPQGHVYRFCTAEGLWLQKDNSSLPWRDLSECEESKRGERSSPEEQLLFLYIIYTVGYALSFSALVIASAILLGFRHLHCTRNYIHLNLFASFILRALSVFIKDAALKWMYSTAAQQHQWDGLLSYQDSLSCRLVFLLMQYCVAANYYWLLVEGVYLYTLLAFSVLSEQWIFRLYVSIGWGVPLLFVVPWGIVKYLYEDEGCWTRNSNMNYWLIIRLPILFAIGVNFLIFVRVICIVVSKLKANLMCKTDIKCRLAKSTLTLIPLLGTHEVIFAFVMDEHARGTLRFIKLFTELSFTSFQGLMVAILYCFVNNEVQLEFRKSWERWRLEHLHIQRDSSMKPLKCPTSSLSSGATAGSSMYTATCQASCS
Experiment: qHTS of GLP-1 Receptor Inverse Agonists (Inhibition Mode); further: nearly all actives have a fitted effect of over 55% in size
Details: HEK293 GLP-1R CRE-luciferase, luminescence, 24 h, GLP-1R form is constitutively active; series mostly up to 38.3 µM
Procedure, shortened: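 Using stably transfected HEK293 (constitutively active GLP-1R, cAMP-luciferase reporter), compounds were incubated 24 hr and luciferase measured by luminescence.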
Potency means the concentration at half of the fitted maximal effect; tags describe the fitted curve by direction and shape.

Potency, active:
CC(C)c1ccccc1OCC(O)CN(CC(O)COc1cccc2ccccc12)C(C)C (stereo not given) 8.91 µM

Potency, inactive:
CCc1ccccc1NC(=O)Nc1cc(C(=O)NCc2ccc(OC)cc2)ccc1N1CCCC1
O=c1[nH]c(=O)n(Cc2ccccc2)c2nc(-c3ccco3)cc(C(F)(F)F)c12
COC(=O)c1[nH]c(C)c(/C(O)=C2\C(=O)C(=O)N(CCCN3CCOCC3)C2c2ccccn2)c1C (stereo not given)
CC[C@H]1O[C@H](C)CC2=C1C(=O)OC(C)(C)O2
CC1=NN(C(=O)Cc2ccc(C)cc2)C(O)(c2cccnc2)C1 (stereo not given)
N#Cc1cc2c([nH]c1=S)CCCCCC2
CC(=O)c1c(C)[nH]c(C(=O)N2CCN(S(=O)(=O)c3ccc(C)cc3C)CC2)c1C

Potency, inconclusive:
COc1ccc(-c2[nH]ncc2-c2cnn(-c3ccccc3)c2)c(O)c1 28.2 µM [inhibitor, single point]
O=C1N[C@H](Cc2ccccc2)C(=O)N[C@H]1Cc1cn(S(=O)(=O)c2ccccc2)c2ccccc12 14.1 µM [inhibitor, partial curve, poor fit]
O=C(O)/C=C/C(=O)Nc1ccc(SC(F)(F)C(F)(F)C(F)(F)F)cc1 5.62 µM [inhibitor, partial curve]
CNCCCOc1ccc2c(c1)CCC2 3.55 µM [inhibitor, partial curve, poor fit]
COc1ccc(N(C(=O)COc2ccccc2OC)S(=O)(=O)c2ccc(Cl)cc2)cc1 11.2 µM [inhibitor, single point]
O=C(/C=C\c1cn(-c2ccccc2)nc1-c1ccccc1)Nc1nccs1 5.62 µM [inhibitor, full curve, poor fit]
CN(c1ccccc1)S(=O)(=O)c1ccc(NC(=S)NC(=O)C2CC2)cc1 10 µM [inhibitor, partial curve]
O=C(Nc1cccnc1)c1cc(-c2cccc(Br)c2)nc2ccccc12 12.6 µM [inhibitor, partial curve]
CC(C)=CCc1c2c(c3occ(-c4ccc(O)c(O)c4)c(=O)c3c1O)C=CC(C)(C)O2 22.4 µM [inhibitor, single point]
COc1ccc(OCc2cc(C(=O)NCc3nc(C)cs3)no2)c(Cl)c1 14.1 µM [inhibitor, single point]
COc1ccc(-c2nc3sc(CCNS(=O)(=O)c4ccc(F)c(C)c4)c(C)n3n2)cc1 11.2 µM [inhibitor, single point]
Cc1cccc(OC(=O)c2cn(C)nc2C(F)(F)F)c1C 25.1 µM [inhibitor, single point]
COc1ccccc1C(=O)Nc1ccc(S(=O)(=O)N2CCCCC2c2cccnc2)cc1 (stereo not given) 28.2 µM [inhibitor, single point]
O=C(CN1CCCc2ccccc21)Nc1ccccc1[N+](=O)[O-] 10 µM [inhibitor, partial curve, poor fit]
CCN(CC)c1ccc(S(=O)(=O)N2CCOCC2)cc1NC(=O)CN1CCc2ccccc2C1 28.2 µM [inhibitor, single point]
COc1ccccc1C1CCN(C(=O)c2ccco2)CC1 11.2 µM [inhibitor, single point]
OCCNCc1cc(Br)ccc1OCc1ccccc1Cl 3.98 µM [inhibitor, partial curve, poor fit]
Cc1ccc(Oc2ccccc2NC(=O)C2=COCCO2)cc1 14.1 µM [inhibitor, single point]
CN(C)CCCNC(=O)c1cc(C(=O)c2cccc(Cl)c2Cl)c[nH]1 5.62 µM [inhibitor, partial curve, poor fit]
CCOC(=O)c1c(CSc2ccc(C)cc2)oc2ccc(O)cc12 28.2 µM [inhibitor, single point]
O=C1CC2(CCN(C(=O)C(=O)c3c[nH]c4ccccc34)CC2)Oc2ccccc21 8.91 µM [inhibitor, partial curve]
O=C(CCNS(=O)(=O)c1ccccc1C(F)(F)F)N1CCN(c2ccccc2O)CC1 7.08 µM [inhibitor, partial curve]
COc1cccc(NC(=O)C(OC(=O)/C=C/c2ccc3c(c2)OCO3)c2ccccc2)c1 (stereo not given) 11.2 µM [inhibitor, partial curve, poor fit]
N#CC1=C(N)Oc2ccc3ccccc3c2C1c1cccnc1 (stereo not given) 0.708 µM [inhibitor, full curve, poor fit]
CC1Cc2ccccc2N1S(=O)(=O)c1cnc(Cl)c(Cl)c1 (stereo not given) 28.2 µM [inhibitor, single point]
Clc1ccc(CNc2cc(-c3ccccc3)nc3nncn23)cc1 12.6 µM [inhibitor, single point]
CC(C)(C)C(=O)N1CCC[C@H]1C(O)(c1ccccc1)c1ccccc1 28.2 µM [inhibitor, single point]
CCOC(=O)c1cc(-c2ccccc2)nn1Cc1cc(CC)no1 28.2 µM [inhibitor, single point]
Cc1c(/C=N/NC(=O)c2ccc(O)cc2)c2ccccn2c1C(=O)c1ccc(F)cc1 2.24 µM [inhibitor, partial curve, poor fit]
COc1cccc(C(=O)N2CCN(C(=O)c3ccc(-c4ccccc4)cc3)CC2)c1OC 8.91 µM [inhibitor, partial curve, poor fit]
CCN1C=C(Cc2ccc(F)cc2)C2=C(C1)C(c1ccc(F)cc1)C(C#N)=C(N)O2 (stereo not given) 10 µM [inhibitor, partial curve, poor fit]
O=C(OCc1ccccc1)N1CCC2CC1c1cc(Cl)ccc12 (stereo not given) 10 µM [inhibitor, partial curve, poor fit]
